This is one part of the list. Cut-off read from the data, not from the text of the source: active = 3.2 or more and inactive = the rest. The signal is at background level for most entries.
Experiments:
Test in all cases: enrichment score (SH2-bound / input frequency) (ratio); bacterial display of known human phosphotyrosine sites (pTyr-Var adds point mutants) read by sequencing; higher = stronger binding; tyrosines were phosphorylated by kinases first
Conditions in all cases: peptide library: pTyr-Var
SHP2 C-SH2 domain E139D = biological target: SHP2 C-SH2 domain E139D
[1] = biological target: SHP2 C-SH2 domain wild-type
SHP2 N-SH2 domain L43F = biological target: SHP2 N-SH2 domain L43F
SHP2 N-SH2 domain T42A = biological target: SHP2 N-SH2 domain T42A
SHP2 N-SH2 domain T52S = biological target: SHP2 N-SH2 domain T52S
[2] = biological target: SHP2 N-SH2 domain wild-type
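Note: displayed peptides selected on beads carrying the immobilized SH2 domain, with library peptides lacking any tyrosine serving as negative controls.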

Row | Binder | enrichment score (SHP2 C-SH2 domain E139D) | enrichment score [1] | enrichment score (SHP2 N-SH2 domain L43F) | enrichment score (SHP2 N-SH2 domain T42A) | enrichment score (SHP2 N-SH2 domain T52S) | enrichment score [2]
1 | FKNGDYSEVMK [LCT_Y1638_N1639S] | inactive: 0.748 | inactive: 1.02 | inactive: 0.71 | inactive: 0.725 | inactive: 0.861 | inactive: 0.6
2 | PQIVNYSPDCI [LDHB_Y128_K127N] | inactive: 0.474 | inactive: 0.686 | inactive: 1.49 | inactive: 0.597 | inactive: 0.372 | inactive: 0.66
3 | SCRENYSYSEE [LEMD3_Y258_D260Y] | inactive: 0.619 | inactive: 0.628 | inactive: 0.793 | inactive: 0.635 | inactive: 0.613 | inactive: 1.04
4 | HNQDGYSYLSR [LDLR_Y845_P848L] | inactive: 0.737 | inactive: 1.1 | inactive: 0.469 | inactive: 0.665 | inactive: 0.535 | inactive: 0.557
5 | SARFHYLMAEK [LDHB_Y173_R172H] | inactive: 0.757 | inactive: 0.9 | inactive: 0.772 | inactive: 0.643 | inactive: 0.681 | inactive: 0.843
6 | NPIGLYSAEIL [LDB3_Y202_T206I] | inactive: 0.978 | inactive: 0.836 | inactive: 0.874 | inactive: 0.782 | inactive: 0.986 | inactive: 0.889
7 | SSFSRYIMMPN [LEF1_Y114_G113R_YF] | inactive: 0.722 | inactive: 0.598 | inactive: 0.672 | inactive: 0.655 | inactive: 0.697 | inactive: 0.65
8 | HNQDDYSFPSR [LDLR_Y845_G844D_YF] | inactive: 0.521 | inactive: 0.192 | inactive: 0.634 | inactive: 0.444 | inactive: 0.659 | inactive: 0.431
9 | PQAVTYAKVKH [LILRB4_Y360] | active: 4.25 | active: 8.87 | inactive: 1.78 | active: 5.26 | inactive: 1.87 | inactive: 0.877
10 | CENCHYPILPL [LCK_Y25_V28L] | inactive: 0.926 | inactive: 1.02 | inactive: 0.873 | inactive: 0.863 | inactive: 0.871 | inactive: 0.749
11 | HNQDGYSYPSR [LDLR_Y845] | inactive: 0.765 | inactive: 0.498 | inactive: 0.767 | inactive: 0.736 | inactive: 0.422 | inactive: 0.625
12 | SARFPYLMAEK [LDHB_Y173_R172P] | inactive: 1.04 | inactive: 0.868 | inactive: 1.02 | inactive: 0.84 | inactive: 0.72 | inactive: 1.23
13 | FIATQYSLRPR [LBR_Y166_YF] | inactive: 0.257 | inactive: 0.213 | inactive: 0.216 | inactive: 0.124 | inactive: 0.273 | inactive: 0.242
14 | QDGYSYLSRQM [LDLR_Y847_P848L] | inactive: 0.417 | inactive: 0.845 | inactive: 0.716 | inactive: 0.848 | inactive: 0.527 | inactive: 0.443
15 | PQAVTYATVKH [LILRB4_Y360_K362T] | active: 5.97 | active: 11.4 | inactive: 2.5 | active: 7.19 | inactive: 2.91 | inactive: 1.3
16 | GLPINYTTRRI [LAMA2_Y2894] | inactive: 0.111 | inactive: 0.217 | inactive: 0.152 | inactive: 0.217 | inactive: 0.229 | inactive: 0.143
17 | QDDFSYPSRQM [LDLR_Y847_G844D_YF] | inactive: 0.73 | inactive: 0.684 | inactive: 0.605 | inactive: 0.623 | inactive: 0.734 | inactive: 0.502
18 | SRGLAYPARSA [LEMD2_Y122_P126S] | inactive: 0.459 | inactive: 0.479 | inactive: 0.43 | inactive: 0.551 | inactive: 0.627 | inactive: 0.666
19 | RLDPVYFVAPA [LAMC2_Y250] | inactive: 0.758 | inactive: 0.568 | inactive: 0.799 | inactive: 0.611 | inactive: 0.778 | inactive: 0.735

Row | Binder | enrichment score (SHP2 C-SH2 domain E139D) | enrichment score [1] | enrichment score (SHP2 N-SH2 domain L43F) | enrichment score (SHP2 N-SH2 domain T42A) | enrichment score (SHP2 N-SH2 domain T52S) | enrichment score [2]
20 | RGNKEYKEEKR [LENG1_Y96_E97K] | inactive: 1.49 | inactive: 1.24 | inactive: 1.23 | inactive: 0.712 | inactive: 1.39 | inactive: 0.874
21 | FDKPVYQKTTE [LDLR_Y828_N825K] | inactive: 0.644 | inactive: 0.527 | inactive: 0.459 | inactive: 0.484 | inactive: 0.611 | inactive: 0.648
22 | TDGNGYISFNE [LCP1_Y28] | inactive: 0.634 | inactive: 1.18 | inactive: 0.757 | inactive: 1.51 | inactive: 0.75 | inactive: 0.792
23 | KVNKIYFPDFI [LIG3_Y767_YF] | inactive: 1.54 | inactive: 1.53 | inactive: 1.48 | inactive: 1.35 | inactive: 1.41 | inactive: 1.51
24 | TEGNGYISFNE [LCP1_Y28_D24E] | inactive: 0.646 | inactive: 0.951 | inactive: 0.731 | inactive: 1.37 | inactive: 0.841 | inactive: 1.36
25 | LQEKSYIKGTS [LCTL_Y331] | inactive: 0.548 | inactive: 0.509 | inactive: 0.78 | inactive: 0.337 | inactive: 0.595 | inactive: 0.542
26 | FIATQYSLCPR [LBR_Y166_R169C_YF] | inactive: 0.761 | inactive: 0.826 | inactive: 1.27 | inactive: 0.684 | inactive: 1.78 | inactive: 0.906
27 | QDDYSYPSRQM [LDLR_Y847_G844D] | inactive: 0.714 | inactive: 0.394 | inactive: 0.582 | inactive: 0.43 | inactive: 0.496 | inactive: 0.498
28 | RVILRYVNPGN [LAMA3_Y791_T796N] | inactive: 1.4 | inactive: 1.06 | inactive: 1.04 | inactive: 0.943 | inactive: 1.17 | inactive: 1.07
29 | QDGFSYPSRQM [LDLR_Y847_YF] | inactive: 0.53 | inactive: 0.558 | inactive: 0.66 | inactive: 0.395 | inactive: 0.592 | inactive: 0.588
30 | LSKDLYLISQM [LARP4_Y141] | inactive: 1.38 | inactive: 1.19 | inactive: 1.15 | inactive: 0.953 | inactive: 1.04 | inactive: 1.11
31 | FDNPVCQKTTE [LDLR_Y828_Y828C] | inactive: 0.877 | inactive: 0.813 | inactive: 0.746 | inactive: 0.716 | inactive: 0.75 | inactive: 0.808
32 | FDNPIYQKTTE [LDLR_Y828_V827I] | inactive: 0.803 | inactive: 0.983 | inactive: 0.831 | inactive: 0.789 | inactive: 0.769 | inactive: 0.964
33 | RGNKEYEEEKR [LENG1_Y96] | inactive: 0.46 | inactive: 0.342 | inactive: 0.449 | inactive: 0.429 | inactive: 0.559 | inactive: 0.579
34 | VNKIFYPDFIV [LIG3_Y768_YF] | inactive: 1.31 | inactive: 1.28 | inactive: 1.38 | inactive: 1.34 | inactive: 1.42 | inactive: 1.14
35 | VNKIYYPDFIV [LIG3_Y768] | inactive: 1.47 | inactive: 1.37 | inactive: 2.04 | inactive: 2.39 | inactive: 2.47 | inactive: 1.27
36 | LKRIAYFLCLR [LGI1_Y21_L26R] | inactive: 1.29 | inactive: 1.03 | inactive: 0.988 | inactive: 1.02 | inactive: 1.04 | inactive: 1.01
37 | AHLLQYNHRVK [LGALS3_Y221] | inactive: 1.55 | inactive: 1.46 | inactive: 1.42 | inactive: 1.35 | inactive: 1.45 | inactive: 1.71
